The source of these data is publication PMC4336329 (PLoS ONE, 2015).

The whole screen tested about 310,000 compounds, of which about 2,200 (0.71%) showed an effect of 50% or more. Effects have a minus sign here. The list shows a part of the results.

human ether-à-go-go-related gene (hERG) potassium channel, sequence (Q12809 whole entry, looked up): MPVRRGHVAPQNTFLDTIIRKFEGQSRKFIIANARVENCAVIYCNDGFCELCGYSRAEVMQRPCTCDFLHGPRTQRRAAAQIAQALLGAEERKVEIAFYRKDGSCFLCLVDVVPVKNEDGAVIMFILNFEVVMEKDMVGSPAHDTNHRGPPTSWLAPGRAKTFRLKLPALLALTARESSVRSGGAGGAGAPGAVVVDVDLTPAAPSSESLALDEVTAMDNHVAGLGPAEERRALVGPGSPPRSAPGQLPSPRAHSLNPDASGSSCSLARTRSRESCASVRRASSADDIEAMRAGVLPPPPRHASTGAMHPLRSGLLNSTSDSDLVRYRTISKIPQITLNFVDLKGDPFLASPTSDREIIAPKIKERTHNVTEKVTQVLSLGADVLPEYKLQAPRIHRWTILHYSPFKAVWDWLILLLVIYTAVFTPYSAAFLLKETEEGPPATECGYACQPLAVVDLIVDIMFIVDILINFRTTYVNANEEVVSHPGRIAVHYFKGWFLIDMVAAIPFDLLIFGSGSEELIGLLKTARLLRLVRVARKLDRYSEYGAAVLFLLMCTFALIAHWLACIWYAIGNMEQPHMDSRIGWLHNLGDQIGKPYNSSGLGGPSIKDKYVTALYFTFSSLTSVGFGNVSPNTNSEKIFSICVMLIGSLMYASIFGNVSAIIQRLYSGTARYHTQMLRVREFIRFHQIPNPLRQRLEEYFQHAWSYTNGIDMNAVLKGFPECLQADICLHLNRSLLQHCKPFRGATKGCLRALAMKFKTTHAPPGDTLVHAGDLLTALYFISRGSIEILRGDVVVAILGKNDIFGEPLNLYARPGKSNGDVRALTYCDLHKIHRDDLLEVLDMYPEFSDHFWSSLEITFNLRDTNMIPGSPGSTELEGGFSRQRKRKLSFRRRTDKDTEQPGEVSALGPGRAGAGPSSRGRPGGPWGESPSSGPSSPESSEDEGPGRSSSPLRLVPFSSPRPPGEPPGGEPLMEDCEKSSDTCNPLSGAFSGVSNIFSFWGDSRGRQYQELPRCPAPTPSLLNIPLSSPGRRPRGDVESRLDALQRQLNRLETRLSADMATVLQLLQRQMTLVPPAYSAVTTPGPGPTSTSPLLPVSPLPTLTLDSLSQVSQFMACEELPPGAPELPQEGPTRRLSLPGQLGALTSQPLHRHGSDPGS

The assay concerns the target human ether-à-go-go-related gene (hERG) potassium channel (human, UniProt Q12809). Put plainly: primary screen, population patch clamp on CHO cells stably expressing hERG.
For `O=C(NCc1cccnc1)Nc1ccccc1C(F)(F)F`, the “hERG current change (%, negative = inhibition) at 1uM” value was determined as 0.0148%.

On to `C[N+](C)(C)CCN1C(=O)CSC1=O.[I-]`, for which the “hERG current change (%, negative = inhibition) at 1uM” value turned out to be 12.8%.

For the compound `COc1ccc(-c2csc(N(CCCN3CCOCC3)C(=O)CCl)n2)cc1.Cl`, the “hERG current change (%, negative = inhibition) at 1uM” value is on record as 9.77%.

`Cc1c(C=O)cnn1CCC(=O)O`: the “hERG current change (%, negative = inhibition) at 1uM” value turned out to be 5.15%.

For the compound `O=C(CN1CCN(c2ccc(O)cc2)CC1)NC(c1ccccc1)c1ccccc1`, the “hERG current change (%, negative = inhibition) at 1uM” value was -2.9%.

Turning to `COc1ccc(O)c(/C=N/NC(=S)Nc2cccc(S(=O)(=O)N(C)C)c2)c1`, the “hERG current change (%, negative = inhibition) at 1uM” value was -2.78%.

With `COc1ccc(/C=C/C(=O)NC(CCSC)C(=O)O)cc1` (stereo not drawn), the “hERG current change (%, negative = inhibition) at 1uM” value stood at 3.39%.

As for `C/C(=C\c1ccc(N)cc1)c1nc2ccccc2[nH]1`, the “hERG current change (%, negative = inhibition) at 1uM” value turned out to be 10%.

Take `O=C(/C=C/c1c(F)cccc1Cl)Nc1cccnc1`: the “hERG current change (%, negative = inhibition) at 1uM” value came to 20.9%.

Turning to `COc1ccccc1Cn1c(SCC(=O)C(C)(C)C)nc2cc(C(=O)N3CCC4(CC3)OCCO4)ccc2c1=O`, the “hERG current change (%, negative = inhibition) at 1uM” value is 1.32%.

With `COc1ccccc1-n1nnnc1SCC(=O)N(C)C1CCS(=O)(=O)C1` (stereo not drawn), the “hERG current change (%, negative = inhibition) at 1uM” value came to 5.14%.

As for `COc1cc(F)c(C2=CC(=O)C[C@H](c3ccc(F)cc3)C2)cc1F`, the “hERG current change (%, negative = inhibition) at 1uM” value was 18.1%.

Take `CCCn1c(C(C)NS(=O)(=O)c2ccccc2)n[nH]c1=S` (stereo not drawn): the “hERG current change (%, negative = inhibition) at 1uM” value turned out to be 15%.

On to `Cc1cc2nc(-c3ccco3)cc(C(F)(F)F)n2n1`, for which the “hERG current change (%, negative = inhibition) at 1uM” value worked out at 2.34%.

Turning to `COc1ccccc1-n1c(N)c(C(N)=O)sc1=S`, the “hERG current change (%, negative = inhibition) at 1uM” value was determined as 13.7%.

Regarding `Cc1ccc(NS(=O)(=O)c2cccc(C(=O)NCC(c3cccs3)N(C)C)c2)cc1` (stereo not drawn), the “hERG current change (%, negative = inhibition) at 1uM” value was determined as 8.66%.

As for `O=C(NCCc1nnc2ccc(NCc3ccc(F)cc3)nn12)c1ccccc1`, the “hERG current change (%, negative = inhibition) at 1uM” value turned out to be 6.07%.

In the case of `CC(C)c1ccc(NC(=S)Nc2ccc(OC(F)(F)F)cc2)cc1.Cl`, the “hERG current change (%, negative = inhibition) at 1uM” value turned out to be 14.7%.

In the case of `Cc1oc2cc3oc(=O)c(CCC(=O)NCCCC(=O)O)c(C)c3cc2c1C`, the “hERG current change (%, negative = inhibition) at 1uM” value is given as 11.3%.

Turning to `COc1ccc(CC2S/C(=N/N=C/c3ccc(O)cc3)NC2=O)cc1` (stereo not drawn), the “hERG current change (%, negative = inhibition) at 1uM” value is given as 8.21%.

As for `O=C(NC1CC2CCCC(C1)N2C(=O)Nc1ccccc1)C1CC1` (stereo not drawn), the “hERG current change (%, negative = inhibition) at 1uM” value is given as 7.37%.

For `C=CCn1c(Cc2ccccc2)n[nH]c1=S`, the “hERG current change (%, negative = inhibition) at 1uM” value is reported as 3.56%.

On to `N#CCC(=O)N/N=C/c1ccccc1Cl`, for which the “hERG current change (%, negative = inhibition) at 1uM” value is 8.87%.

For `Cc1cc(C)nc(SCc2nnc(SCC(=O)Nc3ccc(C)c(C)c3)o2)n1`, the “hERG current change (%, negative = inhibition) at 1uM” value turned out to be 11.7%.

In the case of `CN(C)c1ccc(N=Cc2nc(-c3ccccc3)oc2O)cc1`, the “hERG current change (%, negative = inhibition) at 1uM” value is 7.01%.

Regarding `Nc1c(Cl)ncnc1N/N=C/c1ccnc2ccccc12`, the “hERG current change (%, negative = inhibition) at 1uM” value is on record as 9.3%.

For `Cc1ccc(S(=O)(=O)N(Cc2ccc(Cl)cc2)c2ccccc2C(=O)O)cc1`, the “hERG current change (%, negative = inhibition) at 1uM” value worked out at 11.3%.

Turning to `Cn1cccc1CC(=O)N/N=C/C(Cl)=C/c1ccccc1`, the “hERG current change (%, negative = inhibition) at 1uM” value is given as 9.15%.

As for `CCOC(=O)C1=C(c2ccc(O)cc2)NC(=O)NC1C` (stereo not drawn), the “hERG current change (%, negative = inhibition) at 1uM” value is on record as 16.1%.

With `CSCCC(NC(=O)c1ccccc1Br)C(=O)N1CCCCCCC1` (stereo not drawn), the “hERG current change (%, negative = inhibition) at 1uM” value is reported as 6.99%.

In the case of `O=C(Nc1ccccc1NC(=O)c1ccc(F)cc1)c1ccc(F)cc1`, the “hERG current change (%, negative = inhibition) at 1uM” value stood at 12.9%.

Take `CC1CCN(S(=O)(=O)c2ccc(C(=O)OC(C)C(=O)N(C)C3CCCCC3)cc2)CC1` (stereo not drawn): the “hERG current change (%, negative = inhibition) at 1uM” value is listed as 5.25%.

Regarding `CCC(C)NS(=O)(=O)c1ccc(OCC(=O)NCc2ccco2)cc1` (stereo not drawn), the “hERG current change (%, negative = inhibition) at 1uM” value came out at 2.45%.

Turning to `COc1cccc(Cn2cnc3c([N+](=O)[O-])c(C)c(C)cc32)c1`, the “hERG current change (%, negative = inhibition) at 1uM” value was 3.16%.

As for `COc1ccc(SCCN2CC[C@@H](O)CCC2=O)cc1`, the “hERG current change (%, negative = inhibition) at 1uM” value came out at 15.8%.

Consider `COc1ccc(-c2ccc(CCC(=O)O)n2NC(N)=O)cc1`, for which the “hERG current change (%, negative = inhibition) at 1uM” value turned out to be 11.5%.

In the case of `Cc1ccc(-c2cn(S(=O)(=O)c3cccc4nsnc34)nc2N)cc1`, the “hERG current change (%, negative = inhibition) at 1uM” value is 14.1%.

In the case of `COCCn1c(C)cc(C(=O)CSc2nnc(C)s2)c1C`, the “hERG current change (%, negative = inhibition) at 1uM” value came to 10.8%.

On to `COc1ccc(C2C3=C(NCCN=C3c3ccccc3)C(=O)N2c2ccccc2)c(OC)c1` (stereo not drawn), for which the “hERG current change (%, negative = inhibition) at 1uM” value worked out at 1.89%.

On to `Cc1cccc(C)c1NC(=O)N1CCCC1C(=O)Nc1ccc(-n2cnnn2)cc1` (stereo not drawn), for which the “hERG current change (%, negative = inhibition) at 1uM” value was -12.5%.

Turning to `C=CCNC(=O)CC(=O)N/N=C/c1ccc(C(=O)OC)cc1`, the “hERG current change (%, negative = inhibition) at 1uM” value stood at 7.21%.

Turning to `COc1cc(NS(=O)(=O)c2ccc(NC(=S)Nc3ccccc3)cc2)nc(OC)n1`, the “hERG current change (%, negative = inhibition) at 1uM” value stood at 4.66%.

With `N#Cc1nnn(Cc2ccccc2)c1N`, the “hERG current change (%, negative = inhibition) at 1uM” value is reported as 11.5%.

`CCC1CCC(C(=O)NC(C(=O)NCCCN2CCCCC2C)C(C)C)CC1` (stereo not drawn): the “hERG current change (%, negative = inhibition) at 1uM” value was 7.64%.

Turning to `Cc1ccnc(N2CCN(C(=O)CSc3nc4ccccc4nc3N3CCCCC3)CC2)c1`, the “hERG current change (%, negative = inhibition) at 1uM” value was -6.99%.
